What all share (assay): Cytotoxicity of GrB-Fc-IT4 constructs
Holding throughout (type): cell-based

In one assay the test system is A375. From the text:
(§1) As an initial test of this arrangement a construct was produced comprising GrB-Fc-IT4 (scFv). Specifically, the IT4 scFv targets the product of the tumor necrosis factor receptor superfamily, member 12A (TNFRSF12A) gene and was previously described in Zhou et al., 2011, which is incorporated herein by reference. The sequence of the fusion protein produced by the construct is provided as SEQ ID NO: 45. The constructs was expressed and purified as detailed supra and tested for activity against a panel of cells lines (using GrB alone a control).

The next assay relates to A549.
Description: as §1

Another assay relates to AsPc-1.
Description: as §1

In another assay the test system is Capan-1.
Description: as §1

In another assay the test system is Capan-2.
Description: as §1

For the next assay, the system named is H1437.
Description: as §1

A further assay deals with H1975.
Description: as §1

The subject of the next assay is H2073.
Description: as §1

For the next assay, the system named is H3255.
Description: as §1

The subject of another assay is H358.
Description: as §1

The next assay concerns H520.
Description: as §1

Another assay deals with HCC2279.
Description: as §1

Another assay has as its system HCC827.
Description: as §1

The subject of another assay is HT-29.
Description: as §1

The subject of a further assay is L3.6p1.
Description: as §1

For a further assay, the system named is MCF-7.
Description: as §1

In the next assay the test system is MDA-MB-231.
Description: as §1

In another assay the test system is MDA-MB-435.
Description: as §1

The next assay concerns MDA-MD-231-Luc.
Description: as §1

The next assay concerns MEF 3.5 −/−.
Description: as §1

In a further assay the test system is SB2.
Description: as §1

For the next assay, the system named is SK-MEF-28.
Description: as §1

The subject of the next assay is WM35P2N1.
Description: as §1

The subject of the next assay is WM35.
Description: as §1

B1: GrB-Fc-IT4: GrB-Fc-IT4 (scFv) fusion targeting TNFRSF12A (Fn14), SEQ ID NO: 45 (protein)
chain: [about 250 residues not shown]AAAGGGGS[human IgG1 Fc with S442P (EU numbers) not shown]GGGGSQVQLVQSGAEVKKPGASVKVSCKASGYTFTDFIIAWVKQAPGQGLEWIGEIYPGTGRTYYSEKFRGKATLTADTSTSTAYMELSSLRSEDTAVYFCARRTIYYDYDGDYWGQGTLVTVSSGSTSGSGKPGSGEGSTKGDIVMTQSPLSLPVTPGEPASISCRSSKSLLHSNGITYLYWYLQKPGQSPQLLIYQMSNLASGVPDRFSGSGSGTDFTLKISRVEAEDVGVYYCAHNLELPWTFGQGTKVEIKR
Broadly, the IC50 is the concentration that inhibits the measured activity by half. B1: the concentration for half-maximal inhibition (IC50) in the assay on A375 came to 73 nM; with A549, 19 nM; in the assay on AsPc-1, 17 nM; with Capan-1, 37 nM; with Capan-2, 21 nM; in the assay with H1437 it was 14 nM. Besides, the IC50 is over 114 nM in the assay with H1975; over 114 nM in the assay on H2073; 27 nM with H3255; 121 nM in the assay with H358; 62 nM in the assay on H520; 19 nM with HCC2279. The half-maximal inhibitory concentration (IC50) stood at 114 nM with HCC827; 118 nM with HT-29; 35 nM in the assay on L3.6p1; 35 nM in the assay with MCF-7; 17 nM in the assay with MDA-MB-231; 12 nM with MDA-MB-435. The half-maximal inhibitory concentration (IC50) was 3 nM in the assay with MDA-MD-231-Luc; over 114 nM in the assay on MEF 3.5 −/−; 17 nM with SB2; over 284 nM with SK-MEF-28; 144 nM in the assay on WM35P2N1; 3 nM in the assay with WM35.

The values above are taken from patent US11535838B2, “Serine protease molecules and therapies” (Research Development Foundation, priority 2012, dated 2022).
